Test results published in the supplement of paper PMC9588766.
“And” between values parts separate entries of the source, which are not always exact repeats. Equal values may be shown once. Where a name gives a salt, the structure may show the parent alone. ± gives the standard deviation of the averaged measurements. In all, about 2,000 compounds were measured (“cell viability relative to DMSO control (compound alone)”: median about 0.98, lowest 2% from about 0.23 on). This is one part of the list.

test system: PDC-DUC18828; experiment: cell viability relative to DMSO control (compound alone) (fraction); PDC-DUC18828 is a patient-derived cholangiocarcinoma cell line; higher = less growth inhibition; conditions: 1 µM; 72 h
Method: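 Selleck Bioactive library screen in the patient-derived FGFR2-G3BP2 fusion-positive ICC cell line PDC-DUC18828 (500 cells/well). Each compound was tested at 1 uM alone, in triplicate, for 72 h. Viability was read by CellTiter-Glo and normalised to plate DMSO controls.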

SMILES | cell viability
Cc1nc(=O)c2cc(CN(C)c3ccc(C(=O)N[C@@H](CCC(=O)O)C(=O)O)s3)ccc2[nH]1 [Raltitrexed] | 0.973 ± 0.031
CCCOc1ccn2c(C(C)=O)cc(-c3ccccc3S(C)(=O)=O)c2c1 | 0.939 ± 0.0097
CC(/C=C1\SC(=S)N(CC(=O)O)C1=O)=C\c1ccccc1 [Epalrestat] | 0.978 ± 0.068
O=C1c2ccccc2C(=O)c2c1ccc(O)c2O [Alizarin] | 0.993 ± 0.058
CC(=O)[C@]1(O)Cc2c(O)c3c(c(O)c2[C@@H](O[C@H]2C[C@H](N)[C@H](O)[C@H](C)O2)C1)C(=O)c1ccccc1C3=O [Idarubicin HCl] | 0.122 ± 0.009
O=c1oc2ccccc2c(O)c1Cc1c(O)c2ccccc2oc1=O [Dicoumarol] | 1.04 ± 0.04
CS(=O)(=O)N1CCc2c(-c3cnc(N)nc3)nc(N3CCOCC3)nc21 | 0.895 ± 0.014
CC[C@H](C)C(=O)O[C@H]1CCC=C2C=C[C@H](C)[C@H](CC[C@@H]3C[C@@H](O)CC(=O)O3)[C@H]21 [Mevastatin] | 0.9666 ± 0.0066
Cc1ccccc1CN1C2=NCCN2C(=O)C2=C1CCN(Cc1ccccc1)C2 [TIC10 Analogue] | 1.02 ± 0.045
Nc1cc(C(Cl)=C(Cl)Cl)c(S(N)(=O)=O)cc1S(N)(=O)=O [Clorsulon] | 1 ± 0.051
C[C@H](CCC(=O)O)[C@H]1CC[C@H]2[C@@H]3[C@H](O)C[C@@H]4C[C@H](O)CC[C@]4(C)[C@H]3CC[C@]12C [Chenodeoxycholic Acid] | 0.982 ± 0.068
CC(C)CC(CC(=O)NO)C(=O)N[C@@H](Cc1ccc2ccccc2c1)C(=O)N[C@@H](C)C(=O)NCCN (stereo partly drawn) | 1.056 ± 0.0097
C=CC(=O)Nc1cccc(Oc2nc(Nc3ccc(N4CCN(C)CC4)cc3OC)ncc2Cl)c1 | 0.978 ± 0.055
O=C(/C=C/c1ccc(O)c(O)c1)OCCc1ccccc1 [Caffeic Acid Phenethyl Ester] | 0.889 ± 0.013
CC(=O)OCC(CCn1cnc2cnc(N)nc21)COC(C)=O [Famciclovir] | 0.96 ± 0.047
COc1ccc([C@@H]2CC(=O)c3c(O)cc(O[C@@H]4O[C@H](CO)[C@@H](O)[C@H](O)[C@H]4O[C@@H]4O[C@@H](C)[C@H](O)[C@@H](O)[C@H]4O)cc3O2)cc1O [Neohesperidin] | 1.01 ± 0.041
C[C@@H]1CCN(C(=O)CC#N)C[C@@H]1N(C)c1ncnc2[nH]ccc12 | 0.988 and 0.964
C#CC[C@H](c1nc2cc(Cl)ccc2c(=O)n1Nc1ccccc1)N(CCCN)C(=O)c1cccc(Cl)c1F | 0.342 ± 0.017
CCOC(=O)Nc1cc(-c2ccc(C)c(NS(C)(=O)=O)c2)nn2c(C)nnc12 [Bromosporine] | 1.02 ± 0.056
Cc1cc2c(F)c(Oc3ncnn4cc(OC[C@@H](C)OC(=O)[C@H](C)N)c(C)c34)ccc2[nH]1 | 0.941 ± 0.024
O=S(=O)(O)NC1CCCCC1 [Cyclamic  acid] | 0.925 ± 0.037
COc1ccc([C@]2(C#N)CC[C@@H](C(=O)O)CC2)cc1OC1CCCC1 [Cilomilast] | 1.05 ± 0.03
O=C(NCCO)c1cccc(-c2cc(Nc3ccc(OC(F)(F)F)cc3)ncn2)c1 | 0.988 ± 0.072
COCC[n+]1c2c(n(Cc3cnccn3)c1C)C(=O)c1ccccc1C2=O [YM155 (Sepantronium Bromide)] | 0.0109 ± 0.00065
O=c1c(-c2ccc(O)cc2)coc2c([C@@H]3O[C@H](CO)[C@@H](O)[C@H](O)[C@H]3O)c(O)ccc12 [Puerarin] | 0.896 ± 0.027

SMILES | cell viability
Cc1cc(C)cc(C(=O)NOCCCCCC(=O)NO)c1 | 0.619 ± 0.048
Cc1cc([C@@H](C)Nc2ccccc2C(=O)O)c2nc(N3CCOCC3)cc(=O)n2c1 | 0.945 ± 0.056
CCOc1nc2cccc(C(=O)O)c2n1Cc1ccc(-c2ccccc2-c2noc(=O)[nH]2)cc1 [Azilsartan] | 0.9 ± 0.021
COCCOC(=O)C1=C(C)NC(C)=C(C(=O)OC/C=C/c2ccccc2)C1c1cccc([N+](=O)[O-])c1 (stereo not drawn) [Cilnidipine] | 0.969 ± 0.053
O=C(O)/C=C/c1ccc(Cn2ccnc2)cc1 [Ozagrel] | 0.959 ± 0.063
O=C(O)/C=C/c1ccc(Cn2ccnc2)cc1 [Ozagrel HCl] | 1.06 ± 0.062
COc1cc2nccc(Oc3ccc(NC(=O)C4(C(=O)Nc5ccc(F)cc5)CC4)cc3)c2cc1OC | 0.836 ± 0.024
CNC(=O)c1cc(COc2nnc(Nc3ccc(Cl)cc3)c3ccoc23)ccn1 [Telatinib] | 1.06 ± 0.045
CCCc1nc(C)c2c(=O)nc(-c3cc(S(=O)(=O)N4CCN(CC)CC4)ccc3OCC)[nH]n12 [Vardenafil HCl Trihydrate] | 0.994 ± 0.022
Oc1ccc(OCc2ccccc2)cc1 [Monobenzone] | 0.945 ± 0.018
C[C@H]1C[C@H]2[C@@H]3CCC4=CC(=O)C=C[C@]4(C)[C@@]3(F)[C@@H](O)C[C@]2(C)[C@@]1(O)C(=O)CO [Betamethasone] | 0.987 ± 0.064
CN(C)CCOc1ccc(/C(=C(/CCCl)c2ccccc2)c2ccccc2)cc1 [Toremifene Citrate] | 0.918 ± 0.043
CC(C)(Cc1ccc2ccccc2c1)NC[C@@H](O)COc1cccc(Cl)c1C#N | 1 ± 0.069
O=C(c1cn(Cc2cncn2Cc2ccc(Br)cc2)cc1-c1cccc2ccccc12)N1CCOCC1 | 0.744 ± 0.062
CCN1CCN(C(=O)N[C@@H](C(=O)N[C@@H]2C(=O)N3C(C(=O)O)=C(CSc4nnnn4C)CS[C@H]23)c2ccc(O)cc2)C(=O)C1=O [Cefoperazone] | 1.09 ± 0.049
Cc1ccc(Cl)c(Nc2ccccc2C(=O)O)c1Cl [Meclofenamate Sodium] | 0.993 ± 0.025
O=C(NCCO[N+](=O)[O-])c1cccnc1 [Nicorandil] | 0.948 ± 0.02
COc1cc(O)c(CC=C(C)C)c(O)c1C(=O)/C=C/c1ccc(O)cc1 [Xanthohumol] | 0.925 ± 0.019
Cc1cc(/N=N/c2ccc(S(=O)(=O)Nc3ccccn3)cc2)c(N)cc1O | 0.8812 ± 0.0058
COc1ccccc1S(=O)(=O)Nc1ccc2c(c1)CN(C)C(=O)N2 | 0.974 ± 0.027
Cc1nnc(NS(=O)(=O)c2ccc(N)cc2)s1 [Sulfamethizole] | 0.987 ± 0.066
FC(F)c1nc2ccccc2n1-c1nc(N2CCOCC2)nc(N2CCOCC2)n1 | 1.04 ± 0.079
C[C@@H]1C[C@H]2[C@@H]3CCC4=CC(=O)C=C[C@]4(C)[C@@]3(F)[C@@H](O)C[C@]2(C)[C@@]1(O)C(=O)CO [Dexamethasone (DHAP)] | 0.999 ± 0.039
OC1(c2ccc(Cl)c(C(F)(F)F)c2)CCN(CCCC(c2ccc(F)cc2)c2ccc(F)cc2)CC1 [Penfluridol] | 0.883 ± 0.073
CC(C)Oc1ccc(C(=O)N[C@H](CNC(=O)CN(C)C)Cc2ccc(-c3cn4cccc([C@H](C)O)c4n3)cc2)cc1Cl | 0.393 ± 0.031

SMILES | cell viability
O=C(O)CCCc1ccccc1 [Sodium Phenylbutyrate] | 0.976 ± 0.046
Cc1cnc(NC(=O)C2=C(O)c3ccccc3S(=O)(=O)N2C)s1 [Meloxicam] | 0.934 ± 0.032
CC1(C)O[C@@H]2C[C@H]3[C@@H]4CCC5=CC(=O)C=C[C@]5(C)[C@@]4(F)[C@@H](O)C[C@]3(C)[C@]2(C(=O)CO)O1 [Triamcinolone Acetonide] | 0.942 ± 0.062
CCCCCCCCCCCCCCCC(=O)O[C@@H]1[C@@H](O)[C@@H](O)[C@@H]([C@H](NC(=O)[C@@H]2C[C@@H](CCC)CN2C)[C@H](C)Cl)O[C@@H]1SC [Clindamycin palmitate HCl] | 1.06 ± 0.028
CNc1cccc(CCOc2ccc3c(c2)CN(CC(F)(F)F)C(=O)[C@H](CC(=O)O)C3)n1 | 0.85 ± 0.13
CC(=O)Nc1ncc([N+](=O)[O-])s1 [Nithiamide] | 1.01 ± 0.045
CCOCC(O)COc1ccc(NC(=O)CC[S+](C)C)cc1 (stereo not drawn) [Suplatast Tosylate] | 1.08 ± 0.026
CN1CCN(CCOc2cc(OC3CCOCC3)c3c(Nc4c(Cl)ccc5c4OCO5)ncnc3c2)CC1 [Saracatinib (AZD0530)] | 0.878 ± 0.058
CCC(=O)c1c(O)cc(O)cc1O [Flopropione] | 0.989 ± 0.029
C=CC(=O)Nc1ccc2ncnc(Nc3cccc(Br)c3)c2c1 | 0.703 ± 0.051
O=C(/C=C\n1cnc(-c2cc(C(F)(F)F)cc(C(F)(F)F)c2)n1)NNc1ccccn1 [Verdinexor (KPT-335)] | 0.407 ± 0.056
CC1Cc2ccccc2N1NC(=O)c1ccc(Cl)c(S(N)(=O)=O)c1 (stereo not drawn) [Indapamide] | 1.04 ± 0.026
O=c1cc[nH]c(=S)[nH]1 [2-Thiouracil] | 0.96 ± 0.03
O=C(/C=C/c1ccc(CN(CCO)CCc2c[nH]c3ccccc23)cc1)NO [LAQ824 (Dacinostat)] | 0.141 ± 0.0096
Cc1nc(-c2cn3c(n2)-c2ccc(-c4cnn(C(C)(C)C(N)=O)c4)cc2OCC3)n(C(C)C)n1 | 0.842 ± 0.096
CC(C)(C)c1ccc(-c2nc3ccccc3[nH]2)cc1 | 0.862 ± 0.028
COc1ccc(S(=O)(=O)N(C(C)=O)c2ccccc2/C=C/c2cc[n+]([O-])cc2)cc1 | 0.581 ± 0.044
Cc1c(F)cc(C(=O)NC2CC2)cc1-c1ccc(C(=O)NCC(C)(C)C)cn1 | 1.05 ± 0.02
O=C(NOC[C@H](O)CO)c1ccc(F)c(F)c1Nc1ccc(I)cc1F | 0.782 ± 0.031
CC(C)c1cc(-c2ccc(F)c3ccccc23)nc(N)n1 | 1.05 ± 0.043
Cc1cc(C)c(/C=C2\C(=O)Nc3ccccc32)[nH]1 [Semaxanib (SU5416)] | 1 ± 0.036
CC[C@H]1OC(=O)[C@H](C)[C@@H](O[C@H]2C[C@@](C)(OC)[C@@H](O)[C@H](C)O2)[C@H](C)[C@@H](O[C@@H]2O[C@H](C)C[C@H](N(C)C)[C@H]2O)[C@](C)(O)C[C@@H](C)[C@@H]2N[C@@H](COCCOC)O[C@H]([C@H]2C)[C@]1(C)O [Dirithromycin] | 1.06 ± 0.085
O=C1CC2(CCCC2)CC(=O)N1CCCCN1CCN(c2ncccn2)CC1 [Buspirone HCl] | 0.9191 ± 0.0039
